Out of some 210,000 compounds screened, about 5,900 (2.8%) were called active. This list was built around the results that the source calls inconclusive (neither active nor inactive); the mix of calls is not that of the screen. Calls come from the whole dose curve; as a rule, active = well fitted activation curve with a large enough effect; inconclusive = small, poorly fitted or top-dose-only effect; inactive = no such curve, though single readings can be large or run the other way. Potencies of inconclusive entries are doubtful fits and often do not repeat.
Experiment: qHTS Assay for Enhancers of SMN2 Splice Variant Expression; note: nearly all actives have a fitted effect of over 55% in size; for activity change, positive = activation: % of control where 0% means no effect
Settings: HEK293 SMN2-luciferase splicing reporter, luminescence, 30-36 h; activity change, positive = activation: at 46.1 µM (top of the series)
In short: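 qHTS luciferase splicing reporter: luminescence rises when SMN2 exon 7 is included in transfected HEK293 cells. Compound exposure lasted 30-36 h at 37C, with 4.5 mM final sodium butyrate as control, followed by a ONE-Glo read.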
For `CC(C)C(NC(=S)Nc1ccccc1)C(=O)O` (stereo not given), the Potency was active: 3.16 µM. For `CCS(=O)(=O)c1nnnn1-c1ccccc1S(C)(=O)=O`, the Potency was inconclusive: 2.51 µM [activator, partial curve, poor fit]. In the case of `C/C(=N\NC(=O)c1ccccc1O)c1ccc(Br)s1`, the Potency is reported as active: 1.58 µM. For `CCOC(=O)c1c(NC(=O)c2ccncc2)sc(C)c1C`, the Potency was “inactive”. In the case of `COc1ccccc1NC(=O)c1ccc(-c2ccccc2F)o1`, the Potency is reported as inconclusive: 35.5 µM [activator, single point]. In the case of `O=c1[nH]c2c(c3c1CCCC3)CCCC2`, the Potency is reported as inconclusive: 12.6 µM [activator, partial curve, poor fit]. With `N#CCCN(Cc1cccnc1)C(=S)Nc1ccc(OC(F)F)cc1` the Potency was inconclusive: 5.62 µM [activator, single point]. For `Cc1cccc(SCc2noc(C(=O)NC(C)C)c2C(=O)O)c1`, the Potency was inconclusive: 35.5 µM [activator, single point]. For `COc1cccc(CNC(=O)C2CCCN(c3nn4c(=O)cc(C)nc4s3)C2)c1` (stereo not given), the Potency was “inactive”. For `COCc1cc(=O)n2c([nH]c3ccccc32)c1C#N`, the Potency was inconclusive: 4.47 µM [activator, partial curve, poor fit]. For `O=c1[nH]c(S)nc2sc3c(c12)CCCC3`, the Potency was “inactive”. With `CCCCc1nc2c(c3c1C[C@H](C)OC3)CN(C(=O)Nc1cccc(C#N)c1)CC2` the activity change, positive = activation was inactive: 0.193% [at 9.22 µM]. For `CCOC(=O)c1ccc(N/C=C/C(=O)c2ccc(OC)c(OC)c2)cc1`, the Potency was “inactive”. For `COc1ccc(S(=O)(=O)NC2(C(F)(F)F)N=C(c3ccccc3)NC2=O)cc1` (stereo not given), the Potency was inconclusive: 31.6 µM [activator, single point]. For `CC(=O)N1CCc2cc(S(=O)(=O)NC(CC(C)C)C(=O)Nc3ccc4c(c3)OCCO4)ccc21` (stereo not given), the Potency was inconclusive: 6.31 µM [activator, partial curve, poor fit]. With `c1ccc(CSCc2nc3ccccc3[nH]2)cc1` the Potency was inconclusive: 35.5 µM [activator, single point]. In the case of `Cc1ccc(C(=O)N/C(=C/c2ccco2)C(=O)OCN2C(=O)c3ccccc3C2=O)cc1`, the activity change, positive = activation is reported as inactive: -1.22% [at 1.84 µM]. With `Cc1ccc(NC(=O)CN(C)S(=O)(=O)c2ccc3c(c2)n(C)c(=O)c(=O)n3C)cc1C` the Potency was “inactive”. With `CSc1ccc(C(=O)/C=C/c2ccc(N)cc2)cc1` the Potency was active: 14.1 µM. For `COc1ccc(NC(=O)/C(C#N)=C/c2ccc(Br)o2)cc1`, the Potency was inconclusive: 35.5 µM [activator, single point]. For `CC(C)=NNc1nc(-c2ccccc2)cs1`, the Potency was “inactive”. For `CCCC1=Nc2cc(C(=O)NCCCOC(C)C)ccc2Sc2ccccc21`, the Potency was inconclusive: 0.0178 µM [activator, full curve]. With `O=C(Nc1ccccc1)N(O)c1ccc(Cl)cc1` the Potency was inconclusive: 22.4 µM [activator, single point]. In the case of `CC(=O)N=c1sc2nc3ccccc3nc2n1N(C(C)=O)C(C)=O`, the Potency is reported as inconclusive: 2.82 µM [activator, full curve, poor fit]. With `Cc1ccc(Nc2nc(/N=C/N(C)C)n[nH]2)cc1C` the Potency was inconclusive: 14.1 µM [activator, partial curve, poor fit]. For `CC1CCCCC1NC(=O)/C(C#N)=C/c1ccc2c(c1)OCCO2` (stereo not given), the Potency was “inactive”. In the case of `CNC(=O)/C(C#N)=C/c1ccc(-c2ccc(Cl)cc2)o1`, the Potency is reported as inconclusive: 35.5 µM [activator, single point]. In the case of `CC(C)c1ccc(NC(=O)CCNS(=O)(=O)c2ccc3c(c2)oc(=O)n3C)cc1`, the Potency is reported as “inactive”. For `COc1ccc(/C(N)=N/OC(=O)c2cccc([N+](=O)[O-])c2C)cc1OC`, the Potency was “inactive”. In the case of `CCN(C(=O)CN1CCN(c2cccc(C(F)(F)F)c2)CC1)c1c(N)n(Cc2ccccc2)c(=O)[nH]c1=O`, the Potency is reported as inconclusive: 35.5 µM [activator, single point]. In the case of `COc1ccc(-c2coc3cc(OC(C)=O)cc(OC(C)=O)c3c2=O)cc1`, the Potency is reported as active: 8.91 µM. In the case of `NNC(=O)CNC(c1ccccc1)c1cc(Br)ccc1NC(=O)CCN1CCOCC1` (stereo not given), the Potency is reported as “inactive”. For `c1ccc2oc(-c3csc(N4CCOCC4)n3)cc2c1`, the Potency was active: 3.16 µM. In the case of `Cc1ccccc1C(=O)NC(=S)Nc1cccc(NC(=O)C(C)C)c1`, the Potency is reported as “inactive”. With `c1ccc(-c2cnc(-c3ccc(-c4ncc(-c5ccccc5)o4)cc3)o2)cc1` the activity change, positive = activation was inactive: 21.5% [at 9.22 µM]. With `COc1cc(/C=N/NC(=O)COc2cccc(F)c2)ccc1OS(=O)(=O)c1ccc(C)cc1` the Potency was “inactive”. In the case of `COc1cccc(C2=NOC(C(=O)Nc3ccc(C(C)=O)cc3)C2)c1` (stereo not given), the Potency is reported as inconclusive: 35.5 µM [activator, single point]. In the case of `CC(=O)c1ccc(N2CCN(C(=O)c3cc(-c4ccc5c(c4)OCO5)nc4ccccc34)CC2)cc1`, the Potency is reported as inconclusive: 10 µM [activator, partial curve]. With `Cc1cccc(OCCNc2cc(N3CCOCC3)ccc2[N+](=O)[O-])c1` the Potency was inconclusive: 14.1 µM [activator, single point]. In the case of `O=C(/C(C=Nc1ccc(F)cc1)=C(/O)c1ccco1)C(F)(F)F`, the Potency is reported as inconclusive: 35.5 µM [activator, single point]. With `CCOc1ccc(CN(C(=O)c2cc(=O)c3cc(Cl)ccc3o2)C2CCS(=O)(=O)C2)cc1` (stereo not given) the Potency was inconclusive: 0.891 µM [activator, full curve, poor fit]. In the case of `COc1ccc(CC(=O)OC(C)CN2CCCC2)cc1` (stereo not given), the Potency is reported as inconclusive: 17.8 µM [activator, partial curve, poor fit]. With `COc1ccc(/C=N/NC(=O)c2cc(-c3ccccc3OC(C)C)nc3ccccc23)cc1CN1CCOCC1` the Potency was inconclusive: 10 µM [activator, partial curve, poor fit]. With `Cc1cccc(N/C=C/c2onc(C)c2[N+](=O)[O-])c1` the Potency was inconclusive: 8.91 µM [activator, partial curve]. In the case of `O=C(CNS(=O)(=O)c1ccc2ccccc2c1)OCC(=O)c1ccc(Br)s1`, the Potency is reported as inconclusive: 2 µM [activator, partial curve, poor fit]. With `COc1ccc(NC(=O)CN2CCC3(O)CCCCC3C2c2cc(OC)ccc2OC)cc1` (stereo not given) the Potency was “inactive”. For `Cn1nnnc1SCc1csc(Nc2ccccc2)n1`, the Potency was “inactive”. For `CC(C)(C)NC(=O)CSc1nc2[nH]ncc2c(=O)[nH]1`, the Potency was “inactive”. With `COc1ccc(CN(C(C)=O)c2cccc(C)c2C)cc1` the Potency was inconclusive: 1.12 µM [activator, partial curve, poor fit]. For `Cc1ccc(N2CC(C(=O)N3CCN(c4ccccc4)CC3)CC2=O)cc1` (stereo not given), the Potency was inconclusive: 0.0056 µM [activator, full curve, poor fit]. With `CCOC(=O)C1CCN(c2c(N3CCCC(C(=O)OCC)C3)c(=O)c2=O)CC1` (stereo not given) the Potency was inconclusive: 6.31 µM [activator, single point]. In the case of `CC(=O)Nc1cccc(/C(C)=N/NC(=O)c2ccc(CN3CCOCC3)cc2)c1`, the Potency is reported as “inactive”. For `Cc1cc(C=O)c(C)n1-c1ccc(N2CCCCC2)c([N+](=O)[O-])c1`, the Potency was “inactive”. With `O=C(CCc1ccccc1)Nc1ccc(NC(=O)c2ccco2)nc1` the Potency was inconclusive: 11.2 µM [activator, partial curve]. In the case of `CC(=O)c1cc(C#N)c(SCC(=O)C(C)(C)C)nc1C`, the Potency is reported as inconclusive: 12.6 µM [activator, single point]. With `Oc1ccccc1-c1nc2ccc(Cl)cn2c1Nc1ccc2c(c1)OCCO2` the Potency was “inactive”. With `COC(=O)c1ccnc(SCC(=O)c2ccccc2)c1` the Potency was inconclusive: 25.1 µM [activator, single point]. For `O=C(NCC(=O)N(CC1CCCO1)C1(C(=O)NC2CCCC2)CCCCC1)c1ccccc1` (stereo not given), the Potency was “inactive”. With `Cc1ccc(Oc2ccccc2/C=C/C(=O)O)cc1` the Potency was “inactive”. For `Cc1c(C#N)c2ccccc2n1CC(=O)NC(C)c1ccccc1` (stereo not given), the Potency was inconclusive: 8.91 µM [activator, partial curve, poor fit]. For `C=CCn1c(COc2ccccc2)nnc1SC(C)C(=O)N/N=C/c1cc(Cl)ccc1O` (stereo not given), the Potency was “inactive”. For `CC(=O)Nc1ccc(OCC(O)Cn2c3ccccc3c3ccccc32)cc1` (stereo not given), the Potency was “inactive”. For `Cc1sc(NC(=S)NC(=O)c2ccc(C(C)(C)C)cc2)c(C#N)c1C`, the Potency was inconclusive: 31.6 µM [activator, single point]. In the case of `Cc1cccc(NC(=O)Nc2ccc(C#N)cc2)n1`, the Potency is reported as active: 11.2 µM. For `COc1ccc(C(=O)COC(=O)c2ccc(NC(=O)c3ccccc3)cc2)cc1`, the Potency was “inactive”. In the case of `Cc1ccc2cc(CN(C)C(=O)C3CCCO3)c(=O)[nH]c2c1` (stereo not given), the Potency is reported as inconclusive: 20 µM [activator, partial curve, poor fit]. For `O=c1[nH]c(CN2CCc3ccccc3C2)nc2ccccc12`, the activity change, positive = activation was inconclusive: 30.5% [activator]. For `O=C(Nc1ccccc1)c1ccccc1N=Cc1ccccc1O`, the Potency was inconclusive: 35.5 µM [activator, single point]. With `CN(Cc1cccs1)S(=O)(=O)c1cccs1` the Potency was inconclusive: 0.0316 µM [activator, full curve, poor fit]. In the case of `CCCNC(=O)c1cccc(COc2ccccc2OC)c1`, the Potency is reported as active: 14.1 µM. For `CC1CCN(CC(=O)c2cccs2)CC1`, the Potency was “inactive”. With `CCCC(=O)Nc1ccc(C#Cc2ccccc2)cc1` the Potency was inconclusive: 17.8 µM [activator, single point]. For `CC(C)Sc1nnc(NC(=O)C2CC2)s1`, the Potency was inconclusive: 10 µM [activator, partial curve]. With `COC(=O)C1=C(C)NC(=O)CC1c1ccc(C(=O)OC)cc1` (stereo not given) the Potency was “inactive”. With `COc1ccc(S(=O)(=O)N2CCOC2CNC(=O)C(=O)NCCc2ccc(OC)c(OC)c2)cc1C` (stereo not given) the Potency was “inactive”.

Reference: PubChem BioAssay AID1458 (National Center for Advancing Translational Sciences (NCATS), 2008)
Potency is the fitted concentration of half-maximal effect; tags give direction and shape of the fitted curve.
